This note sets out measurements from the supplement of paper PMC4967469.

The IC50 comes from the fitted curve, where viability falls to half of the control; where the fit passes the top or lowest dose, that dose stands as a limit. AUC, from the same fit, is the share of area under the viability curve across the 256-fold dose range; values near 1 show little effect. For part of these data: Any top dose called inferred comes from the curve model; the source does not state it. Some results are limits rather than exact numbers.

Common to all, as to experiment: Viability of human cancer cell lines after 72 h of drug (GDSC screen)
Compound in one assay: O=C(c1ccc(C(=O)N2CCC(N3CCCC3)CC2)c(Nc2ccccc2)c1)N1CCC(N2CCCC2)CC1 [UNC1215]
The note with it: top dose 1 µM; top dose inferred. The method, then:
(§1)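 Human cancer cell lines in 384-well plates, medium with 10% serum, drug for 72 h over a 256-fold dose range (nine 2-fold or five 4-fold steps up to the top dose). Adherent lines were fixed and stained with the nucleic acid dye Syto60, suspension lines read with resazurin; signal relative to control wells, capped at 0 and 100%. One two-parameter sigmoid per drug and line, fitted in a mixed model over all curves with the slope shared within a line.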

Compound in another assay: CCc1cc(-c2n[nH]c(C)c2-c2ccc3c(c2)OCCO3)c(O)cc1O [CCT018159]
The following applies: top dose 10 µM; top dose inferred. The method, then: as §1

Compound in a further assay: Cc1cnc(Nc2ccc(OCCN3CCCC3)cc2)nc1Nc1cccc(S(=O)(=O)NC(C)(C)C)c1 [TG101348]
The note with it: top dose 10.24 µM. The method, then:
as §1

Compound in the next assay: COC(=O)CNC(=O)C(=O)OC [Dimethyloxalylglycine]
The note with it: top dose 4000 µM; top dose inferred. The method, then:
as §1

Compound in another assay: CN(C)Cc1cccc(N=C(c2ccccc2)c2c(O)[nH]c3cc(C(=O)N(C)C)ccc23)c1 [BIX02189]
The following applies: top dose 20 µM; top dose inferred. The method, then:
as §1

Compound in a further assay: C=CCNC1=C2C[C@@H](C)C[C@H](OC)[C@H](O)[C@@H](C)/C=C(\C)[C@H](OC(N)=O)[C@@H](OC)/C=C\C=C(/C)C(=O)NC(=CC1=O)C2=O [17-AAG]
The note with it: top dose 1 µM. The method, then: as §1

Compound in the next assay: Cc1cnc(Nc2ccc(F)cc2Cl)nc1-c1c[nH]c(C(=O)N[C@H](CO)c2cccc(Cl)c2)c1 [VX-11e]
The following applies: top dose 5.12 µM; top dose inferred. The method, then: as §1

Compound in another assay: CS(=O)(=O)c1ccc(C(=O)Nc2ccc(Cl)c(-c3ccccn3)c2)c(Cl)c1 [Vismodegib]
The note with it: top dose 10 µM; top dose inferred. The method, then:
as §1

Compound in a further assay: COc1cccc2cc(-c3nc([C@H]4CC[C@H](C(=O)O)CC4)n4ncnc(N)c34)[nH]c12 [OSI-027]
The note with it: top dose 20 µM. The method, then: as §1

Compound in a further assay: COc1cccc2c1C(=O)c1c(O)c3c(c(O)c1C2=O)C[C@@](O)(C(=O)CO)C[C@@H]3O[C@H]1C[C@H](N)[C@H](O)[C@H](C)O1 [Doxorubicin]
The following applies: top dose 1.024 µM. The method, then: as §1

The IC50 is the point on the concentration scale where inhibition reaches its midpoint. “LOUCY (T-cell lymphoblastic leukaemia, suspension)”: the AUC was 0.991 in the assay with UNC1215; 0.935 with CCT018159; 0.574 with TG101348; 0.059 with Dimethyloxalylglycine; 0.884 with BIX02189; 0.958 with 17-AAG. The AUC stood at 0.991 with VX-11e, 0.991 with Vismodegib, 0.292 with OSI-027 and 0.346 in the assay with Doxorubicin. Besides, the 50% inhibitory concentration (IC50) was more than 1 µM with UNC1215; more than 10 µM with CCT018159; 0.978 µM with TG101348; less than 15.6 µM with Dimethyloxalylglycine; 14.8 µM with BIX02189; more than 1 µM in the assay with 17-AAG. The IC50 is more than 5.12 µM with VX-11e, more than 10 µM with Vismodegib, 0.369 µM in the assay with OSI-027 and 0.0262 µM with Doxorubicin.

With JVM-3 (lymphoid neoplasm, suspension), the AUC with UNC1215 turned out to be 0.966; with CCT018159, 0.823; with TG101348 it was 0.909; with Dimethyloxalylglycine, 0.943; in the assay with BIX02189 it was 0.946; with 17-AAG it was 0.776. Besides, the AUC in the assay with VX-11e was 0.797; with Vismodegib it was 0.899; with OSI-027 it was 0.855; with Doxorubicin, 0.966. For the same cell line, the IC50 was more than 1 µM in the assay with UNC1215; 6 µM in the assay with CCT018159; more than 10.2 µM with TG101348; more than 4000 µM with Dimethyloxalylglycine; more than 20 µM in the assay with BIX02189; 0.405 µM with 17-AAG. The IC50 with VX-11e was 2.47 µM; with Vismodegib it was more than 10 µM; with OSI-027, 16.3 µM; with Doxorubicin, more than 1.02 µM.

Consider NB12 (neuroblastoma, adherent), for which the AUC with UNC1215 was determined as 0.977; with CCT018159 it was 0.944; with TG101348, 0.769; with Dimethyloxalylglycine, 0.356; in the assay with BIX02189 it was 0.972; in the assay with 17-AAG it was 0.833. Also, the AUC with VX-11e turned out to be 0.973; in the assay with Vismodegib it was 0.958; in the assay with OSI-027, 0.788; in the assay with Doxorubicin it was 0.702. For the same cell line, the 50% inhibitory concentration (IC50) is more than 1 µM with UNC1215; more than 10 µM with CCT018159; 5.21 µM with TG101348; 86.7 µM in the assay with Dimethyloxalylglycine; more than 20 µM with BIX02189; 0.987 µM in the assay with 17-AAG. Besides, the concentration for half-maximal inhibition (IC50) was more than 5.12 µM with VX-11e, more than 10 µM with Vismodegib, 12.2 µM with OSI-027 and 0.292 µM with Doxorubicin.

Consider “NCI-H322M (lung adenocarcinoma, suspension)”, for which the AUC was 0.979 in the assay with UNC1215; 0.94 with CCT018159; 0.848 with TG101348; 0.862 with Dimethyloxalylglycine; 0.925 with BIX02189; 0.915 with 17-AAG. Also, the AUC is 0.93 with VX-11e, 0.98 with Vismodegib, 0.894 with OSI-027 and 0.985 with Doxorubicin. Besides, the IC50 with UNC1215 was more than 1 µM; with CCT018159, more than 10 µM; with TG101348, more than 10.2 µM; in the assay with Dimethyloxalylglycine it was more than 4000 µM; in the assay with BIX02189, more than 20 µM; in the assay with 17-AAG, more than 1 µM. In addition, the IC50 with VX-11e was more than 5.12 µM; in the assay with Vismodegib it was more than 10 µM; with OSI-027, more than 20 µM; in the assay with Doxorubicin, more than 1.02 µM.

Turning to “NCI-H211 (small cell lung carcinoma, adherent)”, the AUC with UNC1215 came to 0.967; in the assay with CCT018159 it was 0.984; with TG101348, 0.649; with Dimethyloxalylglycine it was 0.544; with BIX02189, 0.925; with 17-AAG, 0.875. The AUC is 0.965 with VX-11e, 0.979 in the assay with Vismodegib, 0.172 with OSI-027 and 0.448 in the assay with Doxorubicin. For the same cell line, the IC50 is more than 1 µM in the assay with UNC1215; more than 10 µM with CCT018159; 1.63 µM in the assay with TG101348; 328 µM in the assay with Dimethyloxalylglycine; more than 20 µM in the assay with BIX02189; 0.933 µM with 17-AAG. Also, the IC50 with VX-11e was more than 5.12 µM; with Vismodegib, more than 10 µM; in the assay with OSI-027, 0.132 µM; with Doxorubicin it was 0.0463 µM.

SK-UT-1 (soft tissue, adherent): the AUC with UNC1215 is 0.988; with CCT018159, 0.806; in the assay with TG101348 it was 0.945; with Dimethyloxalylglycine it was 0.725; with BIX02189, 0.985; with 17-AAG, 0.422. Besides, the AUC with VX-11e is 0.989; with Vismodegib it was 0.988; with OSI-027, 0.414; with Doxorubicin, 0.285. In addition, the IC50 with UNC1215 was more than 1 µM; in the assay with CCT018159, 4.54 µM; in the assay with TG101348 it was more than 10.2 µM; with Dimethyloxalylglycine it was 1010 µM; with BIX02189, more than 20 µM; in the assay with 17-AAG, 0.039 µM. Also, the half-inhibitory concentration (IC50) with VX-11e was more than 5.12 µM; with Vismodegib, more than 10 µM; with OSI-027, 0.741 µM; with Doxorubicin, 0.0168 µM.
